Source: a compilation of properties of binary mixtures (doi:10.1016/j.jct.2022.106970)
Some of these densities may be calculated back from excess volumes.

Experiment: xn = mol fraction of the nth substance listed
Settings: 92.3 kPa

CCCC[NH3+].O=C[O-] + CCO
mass density [kg/m3]
Settings | 293.15 K | 298.15 K | 303.15 K | 308.15 K | 313.15 K
x1 = 0.0484 | 811.6 | 807.5 | 803.4 | 799.3 | 795.2
x1 = 0.1038 | 832.3 | 828.4 | 824.5 | 820.6 | 816.7
x1 = 0.1507 | – | 843.8 | 840 | 836.2 | 832.4
x1 = 0.2004 | 861.7 | – | 854.4 | – | 847.1
x1 = 0.2564 | 875.9 | 872.4 | – | – | 861.6
x1 = 0.2938 | 884.5 | 881 | 877.5 | 874 | 870.5
x1 = 0.355 | 897 | 893.6 | – | – | 883.4
x1 = 0.3886 | – | 900 | 896.7 | 893.3 | –
x1 = 0.4521 | 914.2 | 910.9 | – | – | 901.2
x1 = 0.5005 | 921.7 | 918.4 | – | 912 | 908.8
x1 = 0.5487 | 928.5 | 925.3 | 922.2 | 919 | 915.9
x1 = 0.5982 | 934.9 | 931.8 | – | 925.6 | 922.5
x1 = 0.6393 | 939.9 | 936.8 | 933.8 | – | 927.7
x1 = 0.6993 | 946.7 | 943.7 | 940.7 | – | 934.7
x1 = 0.749 | 951.9 | 949 | 946 | 943 | 940.1
x1 = 0.7972 | – | 953.7 | 950.7 | 947.8 | 944.9
x1 = 0.8487 | 961.2 | – | 955.4 | 952.5 | 949.7
x1 = 0.8993 | 965.5 | 962.6 | 959.7 | 956.9 | 954.1
x1 = 0.9444 | – | – | 963.4 | 960.6 | 957.8
x1 = 1 | 973.6 | 970.8 | 968 | 965.2 | 962.5

CCO + CCCC[NH3+].O=C[O-]
x2 = 0
Settings | mass density [kg/m3]
293.15 K | 789.4
298.15 K | 785.1
308.15 K | 776.4
313.15 K | 772
